Read counts are not given, so values of variants with three or more changes are uncertain.

B1: LINE1-mini (parent)
chain: GGCAGAGCUCAACACAGCGUGGCAAAGUGGCUGUGGCUAGACUGCC

The variants in the series derive from B1. In words: self-cleavage, relative activity (ratio to wild type); higher = more cleavage; in vitro, sequencing; the parent is a self-cleaving ribozyme.
On to C3U G21A C31G G40A A41C, for which the self-cleavage was found to be 0.02.

In the case of C3U C15U G17C C42A U43A, the self-cleavage was 0.07.

Regarding A4C A14G A24U G36C C37U G40C C42A, the self-cleavage is 0.

As for C3U G22U G29C C46G, the self-cleavage amounted to 0.85.

A4C A11G C13A: the self-cleavage was 0.03.

For A4C C15A A16U U20C G33A, the self-cleavage turned out to be 0.02.

In the case of A4C C13U U32G A39U G44U, the self-cleavage was 0.03.

With A4C A6C G7C, the self-cleavage is 0.14.

On to A4C C10A C15G, for which the self-cleavage amounted to 0.05.

Regarding C3U G5U C31A U38A, the self-cleavage amounted to 0.01.

For A4C C10G C13A G33A G44C, the self-cleavage worked out at 0.01.

On to A4C G21A A25G G44C, for which the self-cleavage was 0.12.

Consider A4C A11U C23U U38G G44A, for which the self-cleavage came out at 0.01.

On to C3U C18U U32G A39G G44C, for which the self-cleavage is 0.14.

Turning to A4C C18U U34A, the self-cleavage is 0.

As for A4C G35U G36A, the self-cleavage was determined as 0.25.

For A4C A6C C15G C18G C23A A25U A26G G35C, the self-cleavage amounted to 0.06.

For A4C C42A C46U, the self-cleavage was determined as 0.04.

On to C3U G19A G22U C42A, for which the self-cleavage came to 0.1.

As to C3U G17U C31G C37U, the self-cleavage worked out at 0.13.

C3U C31U G40A A41C: the self-cleavage is 0.03.

Regarding A4C C8U C23G, the self-cleavage was 0.02.

Regarding C3U G21C G33A, the self-cleavage amounted to 0.07.

As to C3U G17C G29U G35U, the self-cleavage was determined as 0.05.

As for C3U G29U C42G, the self-cleavage worked out at 0.03.

In the case of C3U U9G C13A G17A G35A G40C U43A C45A, the self-cleavage is 0.21.

Turning to C3U C15G A41G, the self-cleavage was 0.03.

As to C3U G7A C10A G40A, the self-cleavage worked out at 0.07.

In the case of C3U G5C C42U, the self-cleavage was 0.09.

Regarding A4C G35A C46A, the self-cleavage came out at 0.23.

With A4C G5A G29A C45A, the self-cleavage came to 0.08.

Consider A4C U32C G35A A39U, for which the self-cleavage was 0.05.

For A4C G5U A26G, the self-cleavage is 0.09.

For the variant A4C A24G C31U C37G, the self-cleavage was determined as 0.02.

On to C3U C15U C18U A25G C37A, for which the self-cleavage was 0.14.

As to C3U G7C C13U A14C G19U G29U G40U, the self-cleavage came to 0.04.

Take A4C A14C A25C U28A: the self-cleavage came out at 0.

With C3U C15A A16U U28C A41C, the self-cleavage was found to be 0.02.

Consider A4C A12U A39C C42G, for which the self-cleavage is 0.08.

As for C3U C18A C42U C46A, the self-cleavage was 0.1.

In the case of C3U G27A A41G G44A, the self-cleavage is 0.08.

C3U G22C C31A C37A: the self-cleavage came to 0.09.

Turning to A4C A14U C18G G36A C42A, the self-cleavage was found to be 0.15.

For the variant C3U C15A U32C C42U, the self-cleavage came to 0.04.

For the variant A4C G5U C18A C23G C31U G35A A39C C46U, the self-cleavage came to 0.11.

As to C3U G17C G19U G29C C37U, the self-cleavage came to 0.1.

On to C3U G22U C37G, for which the self-cleavage amounted to 0.04.

Regarding A4C A6G U20A, the self-cleavage was 0.08.

For C3U C13U G17U A24U C37G, the self-cleavage was found to be 0.05.

As for C3U G5U C10A, the self-cleavage was determined as 0.04.

For A4C C18A U20G C23A U34C, the self-cleavage was 0.09.

A4C C13G A24C C37A: the self-cleavage is 0.12.

As to A4C A11G G33U, the self-cleavage was found to be 0.03.

Regarding A4C C18U U32C, the self-cleavage turned out to be 0.02.

As for A4C G19C G27A, the self-cleavage was found to be 0.06.

On to C3U G5A C18U G27U G36A G40C, for which the self-cleavage came out at 0.13.

In the case of C3U C23G G30U U43A, the self-cleavage worked out at 0.08.

A4C A6U G17C: the self-cleavage was 0.61.

As for A4C A11G A14G G35U G36U, the self-cleavage was found to be 0.

A4C A12U C15A G22U G36U C42G: the self-cleavage amounted to 0.1.

As for C3U G30U G44U, the self-cleavage was determined as 0.

For the variant A4C A14G C18G A25U C42A U43G, the self-cleavage amounted to 0.

On to A4C U9A G22U U32A A41U, for which the self-cleavage turned out to be 0.16.

As to A4C C42A C45A, the self-cleavage is 0.04.

As for A4C A16U U20A G35U, the self-cleavage is 0.18.

Regarding A4C G7U A14U C18A G40A, the self-cleavage came to 0.16.

On to A4C C31A U43C, for which the self-cleavage turned out to be 0.06.

On to C3U U34A C37U, for which the self-cleavage amounted to 0.04.

Take A4C G30A U32C G44A: the self-cleavage amounted to 0.07.

On to A4C C10U C13A U20A, for which the self-cleavage stood at 0.02.

Consider A4C A11G G33C C37G G40U, for which the self-cleavage is 0.

As for C3U G19C C31A, the self-cleavage worked out at 0.14.

A4C C10U C13U G21U C23U A24G U32C: the self-cleavage stood at 0.02.

With C3U G17A C37G, the self-cleavage amounted to 0.01.

With C3U G7C C23A G35U, the self-cleavage came to 0.09.

For A4C G7U U28A C37G A41U, the self-cleavage came out at 0.03.

On to C3U U9A C23A U32C, for which the self-cleavage came out at 0.09.

Regarding A4C A11C U32G A41U, the self-cleavage came to 0.

Take C3U C23U A24G G36C: the self-cleavage worked out at 0.37.

In the case of A4C G7A C8A, the self-cleavage amounted to 0.98.

As for C3U G5A C10G U34A, the self-cleavage worked out at 0.02.

Take A4C C10G G27C A41C: the self-cleavage came out at 0.02.

For A4C A26G G40A, the self-cleavage amounted to 0.09.

As to A4C A14U G40A, the self-cleavage worked out at 0.24.

Turning to A4C G5U U9G, the self-cleavage was determined as 0.03.

Turning to A4C A16C G22U U28C G29U U32G C46A, the self-cleavage came out at 0.06.

With A4C C37A A41C C42A, the self-cleavage came to 0.1.

Consider A4C A6G C13U C23A U38G, for which the self-cleavage stood at 0.06.

Consider C3U G7A C10A, for which the self-cleavage came to 0.03.

As to C3U U9A A11U C23A C31G, the self-cleavage was found to be 0.01.

In the case of C3U G7C G29C C45G, the self-cleavage worked out at 0.

In the case of C3U G7U G27A G29U C31U C37U, the self-cleavage is 0.01.

On to A4C A11G G17U C31A, for which the self-cleavage turned out to be 0.01.

Consider C3U G22C G27U, for which the self-cleavage turned out to be 0.12.

Turning to C3U C18G A39G, the self-cleavage was 0.01.

As for A4C A24U C45U, the self-cleavage stood at 0.18.

As to A4C G7C U9A C18U U28C, the self-cleavage came out at 0.04.

For C3U G7A U20A, the self-cleavage amounted to 0.09.

On to A4C C10A U20G, for which the self-cleavage worked out at 0.

A4C A24U G35A C46U: the self-cleavage was determined as 0.04.

Turning to A4C G7U C15A, the self-cleavage turned out to be 0.11.

In the case of A4C A11C C18G G22U C31U G40U, the self-cleavage came out at 0.

Turning to C3U G7U G17C, the self-cleavage amounted to 0.11.

For the variant A4C C18A G21U, the self-cleavage worked out at 0.06.

On to A4C U9A A14U C15G G22A C45G, for which the self-cleavage came to 0.16.

As for C3U U20G C37U, the self-cleavage was determined as 0.05.

In the case of C3U C31A U43A, the self-cleavage was found to be 0.02.

On to C3U C23U A26G C31U, for which the self-cleavage came out at 0.03.

Take C3U C18A U38C: the self-cleavage was determined as 0.06.

In the case of A4C G5U A39U, the self-cleavage was 0.04.

With A4C G17A U28A C31U G36A, the self-cleavage stood at 0.04.

Turning to A4C A6G C15U U43A, the self-cleavage came to 0.17.

Consider A4C C31A G40C, for which the self-cleavage turned out to be 0.05.

C3U U32A G36C U38C: the self-cleavage is 0.21.

As for A4C A11G G17C, the self-cleavage turned out to be 0.01.

For the variant A4C A12G A14U G21U C31A G33A G44C C45A, the self-cleavage was found to be 0.02.

Regarding C3U U9A C23U A26C, the self-cleavage was 0.21.

On to C3U G7U C13U, for which the self-cleavage was 0.27.

As for A4C C42G C45A, the self-cleavage was 0.03.

For the variant A4C C10G C13G G19U U38A, the self-cleavage stood at 0.

Consider A4C C10A U32A G40C, for which the self-cleavage was 0.01.

In the case of C3U G7U U28G G30A A41C, the self-cleavage worked out at 0.04.

Turning to C3U G40U C45G, the self-cleavage is 0.07.

For A4C A14C A25C U32G, the self-cleavage worked out at 0.01.

Turning to C3U G5C U20A A26G U28G G33U A39U C45G, the self-cleavage came to 0.01.

Turning to C3U U38C C45A C46A, the self-cleavage turned out to be 0.1.

Regarding A4C U34G C42U, the self-cleavage was determined as 0.

Consider C3U G5C G21U, for which the self-cleavage was 0.14.

On to A4C G30U G40C C42A, for which the self-cleavage was found to be 0.57.

Regarding A4C C13G G21U G40U, the self-cleavage is 0.28.

Take A4C A41U C45A C46A: the self-cleavage was found to be 0.04.

Turning to A4C C13A G33C, the self-cleavage was found to be 0.13.

Regarding C3U C15G A16U A25C, the self-cleavage worked out at 0.03.

Regarding A4C C23G A26C G33U A41C, the self-cleavage stood at 0.11.

Consider C3U G22C C31A G33C, for which the self-cleavage worked out at 0.08.

On to C3U G5U A25G C31A, for which the self-cleavage is 0.04.

On to A4C A16C C18U G27U, for which the self-cleavage was 0.05.

With C3U G7C A24G, the self-cleavage came to 0.07.

Take C3U G7A C46A: the self-cleavage was determined as 0.4.

Take A4C A11G G19A U34A G40U: the self-cleavage came to 0.02.

In the case of A4C C8A G17A G27U G30C U43G C46A, the self-cleavage stood at 0.14.

On to A4C C8G C18U G27U, for which the self-cleavage worked out at 0.03.

In the case of A4C C10A G17C C45G, the self-cleavage was 0.06.

With A4C A14C G40U, the self-cleavage stood at 0.08.

C3U G29U C45G: the self-cleavage turned out to be 0.02.

Turning to A4C G17U U34G G40A, the self-cleavage was 0.1.

Take C3U C15A C23A: the self-cleavage was 0.01.

As for C3U C13G U20G U32G C42A, the self-cleavage came out at 0.02.

For C3U U34C G35A, the self-cleavage came out at 0.17.

In the case of A4C G17C C42U C46U, the self-cleavage was 0.04.

As to A4C G22C G44C C45A, the self-cleavage amounted to 0.12.

For the variant A4C A11G C13G C37G, the self-cleavage was 0.02.

As to C3U U28A A41C, the self-cleavage came to 0.07.

In the case of C3U G5A G29A, the self-cleavage came out at 0.28.

Turning to A4C G17U A25G A39C, the self-cleavage amounted to 0.02.

Consider A4C G7A A26G U38G, for which the self-cleavage was 0.11.

Turning to C3U C13U U28A G35A, the self-cleavage amounted to 0.23.

Take A4C G27C G29C G35A: the self-cleavage came out at 0.05.

As to A4C A11C G17C G30C, the self-cleavage stood at 0.02.

For the variant C3U C15U C31A G35U C37G, the self-cleavage amounted to 0.08.

With A4C C18U C31U G36C C37G, the self-cleavage worked out at 0.08.

For A4C C8G A12C G21U C37A, the self-cleavage is 0.02.

Turning to C3U G21U G33A, the self-cleavage is 0.02.

Regarding A4C A25U C31A, the self-cleavage is 0.02.

As for A4C C15G C45A, the self-cleavage was determined as 0.02.

For A4C A6C G22C A24C, the self-cleavage was determined as 0.06.

As for C3U C23U G27A C31A, the self-cleavage came to 0.1.

(Values after the RNAGym collection of RNA variant scans (doi:10.7554/elife.90254).)
